# PMC5892938
# The list shows a part of the results. At the low end of the ranking the order means little.
# Biological target: GST-SBP-SLBP (stem-loop binding protein) (UniProt Q14493)
# Experiment: targeted RNA Bind-n-Seq;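 also: DESeq read counts versus GST-SBP nonspecific binding control pulldown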
# Details: RBNS binding buffer: 25 mM Tris pH 7.5, 150 mM KCl, 3 mM MgCl2, 0.1% Tween, 0.5 mg/mL BSA, 1 mM DTT; 27 nM protein, 750 pM RNA pool; temperature not stated; high values mean tight binding
row,Sequence,binding signal (log2 fold change)
1,GGUCACGUCUCAAUCAACUCGUUUUCAGGAGUUUCCUCCUGCAUAUUCAACAGCUCGCAGUCAAG,-0.0467
2,GGUCACGUCUCAAUCAACUCUUUUUCAGGAGUUUCCUCCUGUAUUCUCAACAGCUCGCAGUCAAG,0.0871
3,GGUCACGUCUCAAUCAACUCCAUCGAGGGGGGGAAAACCCCUUUACCCUCACAUUCAACAGCUCGCAGUCAAG,0.263
4,GGUCACGUCUCAAUCAACUCAUCUCCCAGGGAAACCCCUGGUAUUCUCAACAGCUCGCAGUCAAG,0.118
5,GGUCACGUCUCAAUCAACUCACUAGAGGGGGGGAAAACCCCUUUACCCUCCACUUCAACAGCUCGCAGUCAAG,-0.334
6,GGUCACGUCUCAAUCAACUCAAUUCCAGGAGUUUUCUCCUGCUAAGUCAACAGCUCGCAGUCAAG,0.192
7,GGUCACGUCUCAAUCAACUCUUCCUCCAGGGAAAGCCCUGGCAUUCUCAACAGCUCGCAGUCAAG,0.15
8,GGUCACGUCUCAAUCAACUCUAUUUCCAGGGAAAUCCCUGGUAUUUUCAACAGCUCGCAGUCAAG,-0.0059
9,GGUCACGUCUCAAUCAACUCAAUCCCAGGAGUUUCCUCCUGUAAUUUCAACAGCUCGCAGUCAAG,0.078
10,GGUCACGUCUCAAUCAACUCAUCUCCCAGGGAAAUCCCUGGUUAACUCAACAGCUCGCAGUCAAG,-0.0747
11,GGUCACGUCUCAAUCAACUCAAACGAGGGGGGGAAAACCCCUUUGCCCUCAUAUUCAACAGCUCGCAGUCAAG,-0.12
12,GGUCACGUCUCAAUCAACUCAACUUCCAGGGAAACCCCUGGCUAACUCAACAGCUCGCAGUCAAG,0.232
13,GGUCACGUCUCAAUCAACUCUUCUUCAGGAGUUUUCUCCUGCUAUGUCAACAGCUCGCAGUCAAG,0.00166
14,GGUCACGUCUCAAUCAACUCAUUCCCAGGAGUUUACUCCUGCUAAUUCAACAGCUCGCAGUCAAG,0.0994
15,GGUCACGUCUCAAUCAACUCUUCGCCAGGAGUUUCCUCCUGUAAAUUCAACAGCUCGCAGUCAAG,-0.0534
16,GGUCACGUCUCAAUCAACUCUAUCUCAGGAGUUUUCUCCUGCAUAUUCAACAGCUCGCAGUCAAG,-0.0548
17,GGUCACGUCUCAAUCAACUCACUAGAGGGGGGGAAAACCCCUUUGCCCUCCAACUCAACAGCUCGCAGUCAAG,0.317
18,GGUCACGUCUCAAUCAACUCGUUUUCAGGAGUUUUCUCCUGUUUUUUCAACAGCUCGCAGUCAAG,0.131
19,GGUCACGUCUCAAUCAACUCAAAAGAGGGGGGGAAAACCCCUUUACCCUCCAUAUCAACAGCUCGCAGUCAAG,-0.1
20,GGUCACGUCUCAAUCAACUCUACUUCCAGGGAAAUCCCUGGUAUAUUCAACAGCUCGCAGUCAAG,-0.217
21,GGUCACGUCUCAAUCAACUCAAUUCCAGGAGUUUCCUCCUGCAUUUUCAACAGCUCGCAGUCAAG,0.321
22,GGUCACGUCUCAAUCAACUCUUACGAGGGGGGGAAAACCCCUUUACCCUCACUUUCAACAGCUCGCAGUCAAG,-0.203
23,GGUCACGUCUCAAUCAACUCAACUUCAGGAGUUUCCUCCUGUUUUUUCAACAGCUCGCAGUCAAG,-0.0509
24,GGUCACGUCUCAAUCAACUCUAGUCCCAGGGAAAACCCUGGUAAAUUCAACAGCUCGCAGUCAAG,-0.182

row,Sequence,binding signal (log2 fold change)
1,GGUCACGUCUCAAUCAACUCAACUCCAGGAGUUUUCUCCUGCAUAUUCAACAGCUCGCAGUCAAG,0.0938
2,GGUCACGUCUCAAUCAACUCAUCCUCAGGAGUUUUCUCCUGUAAUUUCAACAGCUCGCAGUCAAG,0.0689
3,GGUCACGUCUCAAUCAACUCUUUAGAGGGGGGGAAAACCCCUUUGCCCUCAUUAUCAACAGCUCGCAGUCAAG,-0.1
4,GGUCACGUCUCAAUCAACUCUUUCUCAGGAGUUUUCUCCUGUUAUGUCAACAGCUCGCAGUCAAG,0.024
5,GGUCACGUCUCAAUCAACUCUAUCCCCAGGGAAAACCCUGGUAUUCUCAACAGCUCGCAGUCAAG,0.0466
6,GGUCACGUCUCAAUCAACUCUUUCGAGGGGGGGAAAACCCCUUUGCCCUCAUCAUCAACAGCUCGCAGUCAAG,0.127
7,GGUCACGUCUCAAUCAACUCAAUCUCAGGAGUUUCCUCCUGUUUAUUCAACAGCUCGCAGUCAAG,0.173
8,GGUCACGUCUCAAUCAACUCAAUCUCCAGGGAAAACCCUGGCAAUUUCAACAGCUCGCAGUCAAG,0.237
9,GGUCACGUCUCAAUCAACUCAUUUUCAGGAGUUUGCUCCUGCUAUUUCAACAGCUCGCAGUCAAG,-0.000797
10,GGUCACGUCUCAAUCAACUCAAUCCCAGGAGUUUCCUCCUGUAUAUUCAACAGCUCGCAGUCAAG,0.00994
11,GGUCACGUCUCAAUCAACUCACCCGAGGGGGGGAAAACCCCUUUACCCUCAACAUCAACAGCUCGCAGUCAAG,-0.258
12,GGUCACGUCUCAAUCAACUCUAUCCCCAGGGAAAACCCUGGCAAAUUCAACAGCUCGCAGUCAAG,0.0358
13,GGUCACGUCUCAAUCAACUCAAUCUCAGGAGUUUGCUCCUGCUUUCUCAACAGCUCGCAGUCAAG,0.113
14,GGUCACGUCUCAAUCAACUCACUAGAGGGGGGGAAAACCCCUUUACCCUCAAUUUCAACAGCUCGCAGUCAAG,0.352
15,GGUCACGUCUCAAUCAACUCUAUCCCCAGGGAAAUCCCUGGCAUUUUCAACAGCUCGCAGUCAAG,-0.193
16,GGUCACGUCUCAAUCAACUCAUCUCCAGGAGUUUACUCCUGCAUACUCAACAGCUCGCAGUCAAG,0.16
17,GGUCACGUCUCAAUCAACUCAAUUUCAGGAGUUUUCUCCUGCGUAUUCAACAGCUCGCAGUCAAG,0.0803
18,GGUCACGUCUCAAUCAACUCAUUUCCCAGGGAAAUCCCUGGUUUUCUCAACAGCUCGCAGUCAAG,-0.0893
19,GGUCACGUCUCAAUCAACUCCCAAGAGGGGGGGAAAACCCCUUUGCCCUCAUCAUCAACAGCUCGCAGUCAAG,-0.373
20,GGUCACGUCUCAAUCAACUCCCAAGAGGGGGGGAAAACCCCUUUGCCCUCCACAUCAACAGCUCGCAGUCAAG,-0.19
21,GGUCACGUCUCAAUCAACUCUAUCUCAGGAGUUUCCUCCUGCUAUCUCAACAGCUCGCAGUCAAG,0.15
22,GGUCACGUCUCAAUCAACUCUUUCUCCAGGGAAAUCCCUGGCUUUUUCAACAGCUCGCAGUCAAG,-0.164
23,GGUCACGUCUCAAUCAACUCUCACGAGGGGGGGAAAACCCCUUUACCCUCAAAAUCAACAGCUCGCAGUCAAG,-0.0305
